Data published in patent US20110256153A1 (IMMUNOGEN, published 2011).

Biological target: T1, human CD37 (human, UniProt P11049 1-278)
T1 construct: Tetraspanin antigen; Expressed on 300-19 cells transfected with pSRa-CD37 (entire CDS) or endogenous on WSU-DLCL-2, BJAB and Ramos lymphoma cells; also called CD37 antigen; human CD37 wildtype
T1 sequence: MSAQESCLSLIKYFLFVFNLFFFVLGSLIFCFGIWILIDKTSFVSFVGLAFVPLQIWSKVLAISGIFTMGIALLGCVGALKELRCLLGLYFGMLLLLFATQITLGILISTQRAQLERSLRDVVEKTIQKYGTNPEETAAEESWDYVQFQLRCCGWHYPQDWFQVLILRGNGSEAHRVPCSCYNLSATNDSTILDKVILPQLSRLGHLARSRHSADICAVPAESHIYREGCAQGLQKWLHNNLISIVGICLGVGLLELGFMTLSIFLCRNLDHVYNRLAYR
Experiment: flow cytometry titration on Ramos cells; apparent Kd
Method: Binding specificity was tested by flow cytometry using purified antibodies. […] All murine antibodies were incubated for 3 h with either CD37-expressing 300-19 cells or the non-transfected 300-19 cells (1×10⁵ cells per sample) in 100 μL FACS buffer (RPMI-1640 medium supplemented with 2% normal goat serum). Then, the cells were pelleted, washed, and incubated for 1 h with 100 μL of FITC-conjugated goat anti-mouse IgG-antibody (Jackson Laboratory, 6 μg/mL in FACS buffer). The cells were pelleted again, washed with FACS buffer and resuspended in 200 μL of PBS containing 1% formaldehyde. Samples were acquired using a FACSCalibur flow cytometer with the HTS multiwell sampler or a FACS array flow cytometer and analyzed using CellQuest Pro (all from BD Biosciences, San Diego, US).
The chimeric antibodies chCD37-3 and chCD37-12 were assayed for their binding affinity to Ramos cells in comparison to their murine counterparts. Flow cytometry binding assays using Ramos cells and muCD37-3, chCD37-3, muCD37-12 and chCD37-12 antibodies were carried out and analyzed as described in Example 2 using secondary FITC-conjugated goat-anti-murine and -anti-human antibodies. […] The value for the apparent dissociation constant (Kd) of each antibody was calculated using GraphPad Prism v4 (GraphPad software, San Diego, Calif.).

B1: chCD37-12 (antibody, human IgG1, kappa)
heavy: QIQLVQSGPELKKPGETVKISCKASGYTFTKYGMNWVKQAQGKGLKWMGWINTNTGESRNAEEFKGRFAFSLETSASTAYLQINNLKYEDTATYFCGRGTVVADWGQGTTLTVSS[not shown - human IgG1 constant region]
light: DIVLTQSPASLAVSLGQRATISCRASQSVSTSSYSYLYWFQQKPGQPPKLLIKYASNLASGVPARFSGSGSGTDFTLNIHPVEEEDTATYYCQHSWEIPYTFGGGTKLEIKRTVAAPSVFIFPPSDEQLKSGTASVVCLLNNFYPREAKVQWKVDNALQSGNSQESVTEQDSKDSTYSLSSTLTLSKADYEKHKVYACEVTHQGLSSPVTKSFNRGEC
notes: Chimeric antibody
B1 gave a Kd of 1.2 nM.
